# Reference: PubChem BioAssay AID1030 (National Center for Advancing Translational Sciences (NCATS), 2008)
# Hit rate of the full screen: of about 220,000 compounds, about 16,000 (7.3%) were called active. Inconclusive means that the source gave no clear call. Such entries were picked first, then a sample of the others. The call rests on the fitted dose curve; in most records, active means well fitted inhibition curve with a large enough effect (not every such curve was filed as active); inconclusive means small, poorly fitted or top-dose-only effect, or another doubt; inactive means no such curve, though single readings can be large or run the other way. Potencies of inconclusive entries are left out as doubtful fits.
# Biological target: Aldehyde dehydrogenase 1A1 (Homo sapiens) (UniProt P00352)
# Assay: qHTS Assay for Inhibitors of Aldehyde Dehydrogenase 1 (ALDH1A1);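 on activity, negative = inhibition: plate controls were no enzyme wells and a reference inhibitor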
# Conditions: Purified ALDH1A1, NADH fluorescence, propionaldehyde substrate; series mostly up to 75.3 µM; activity, negative = inhibition: at the top concentration
# Potency means the concentration at half of the fitted maximal effect; tags describe the fitted curve by direction and shape.
# UniProt P00352, sequence (P00352 whole entry, looked up): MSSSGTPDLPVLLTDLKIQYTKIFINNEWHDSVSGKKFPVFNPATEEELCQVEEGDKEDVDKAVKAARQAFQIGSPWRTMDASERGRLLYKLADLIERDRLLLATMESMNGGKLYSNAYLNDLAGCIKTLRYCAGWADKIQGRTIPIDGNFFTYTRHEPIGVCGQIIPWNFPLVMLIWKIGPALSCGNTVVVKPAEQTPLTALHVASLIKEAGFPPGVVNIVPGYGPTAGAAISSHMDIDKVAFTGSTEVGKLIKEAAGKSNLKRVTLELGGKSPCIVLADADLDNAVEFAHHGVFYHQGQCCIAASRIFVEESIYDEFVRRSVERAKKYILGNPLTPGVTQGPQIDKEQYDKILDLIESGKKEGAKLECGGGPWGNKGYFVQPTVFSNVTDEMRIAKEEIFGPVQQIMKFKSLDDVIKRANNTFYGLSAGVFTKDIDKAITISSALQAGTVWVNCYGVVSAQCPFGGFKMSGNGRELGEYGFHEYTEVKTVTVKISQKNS
SMILES,Potency,"activity, negative = inhibition"
CN(C)c1ccc(NC(=O)CSc2nc3ccccc3c(=O)n2C2CCCCC2)cc1,active: 7.08 µM,–
CCCc1cc(=O)[nH]c(SCC(=O)N(Cc2ccccc2)C(C)C)n1,"inconclusive [inhibitor, single point]",–
COc1cc(CN2CCNC(=O)C2CC(=O)N2CCc3ccccc3C2)cc(OC)c1 (configuration not stated),active: 25.1 µM,–
O=C1N/C(=C/c2cccn2-c2ccc(F)cc2)C(=O)N1Cc1ccccc1,active: 15.8 µM,–
O=c1c2sc3ccccc3c2[nH]c(=S)n1CCN1CCOCC1,"inconclusive [inhibitor, single point]",–
COc1ccc(NC(=O)Nc2ccc(Br)cn2)cc1,–,inactive: 5.42%
COc1ccc(NC(C)=O)cc1C#N,active: 3.16 µM,–
C/C(CCc1oc2c(Br)cc(Br)cc2c1-c1ccc(C)o1)=N\O,–,inactive: -13%
CCn1c(C)c(P(=O)(N2CCOCC2)N2CCOCC2)c2ccccc21,–,inactive: 16.2%
COc1ccc(Oc2ncc3nc(-c4ccccc4)c(=O)n(Cc4cccs4)c3n2)cc1,"inconclusive [inhibitor, single point]",–
COCCOC(=O)c1c(C)oc2ccc(NS(=O)(=O)c3cccs3)cc12,"inconclusive [inhibitor, single point]",–
CC(=O)c1c(NCc2ccccc2)nc(=O)n(-c2ccccc2)c1C,active: 14.1 µM,–
Cc1nn(-c2cccc(C(=O)O)c2)c(C)c1Oc1ccccc1O,–,inactive: 13.2%
O=C(NC1CCCC1)C1CCN(c2nccs2)CC1,–,inactive: 1.16%
Cc1cc(C(=O)Nc2ccc(S(=O)(=O)N3CCCC3)cc2)no1,"inconclusive [inhibitor, single point]",–
CCCN(CCC)CC(O)COc1ccc([N+](=O)[O-])cc1 (configuration not stated),"inconclusive [inhibitor, single point]",–
Cn1cccc1/C=C1\CCC/C(=C\c2cccn2C)C1=O,active: 7.94 µM,–
O=C(COc1ccc(Cl)cc1)NCc1nnc(SCC(=O)N2CCCc3ccccc32)o1,"inconclusive [inhibitor, single point]",–
N#Cc1cc(-c2ccccc2)c[nH]c1=O,"inconclusive [inhibitor, partial curve]",–
CCn1c(N2CCN(CC(=O)c3ccc(OC)cc3)CC2)nc2ccccc21,"inconclusive [inhibitor, partial curve]",–
O=C(Nc1ccc2c(c1)OCO2)Oc1ccccc1,"inconclusive [inhibitor, single point]",–
O=C(CCC(=O)N1CCN(S(=O)(=O)c2ccc(Cl)cc2)CC1)Nc1cccc(Br)c1,"inconclusive [inhibitor, single point]",–
CCOC(=O)N1CCN(C(=O)CSCC(=O)Nc2nc(-c3ccc(C)cc3)cs2)CC1,"inconclusive [inhibitor, single point]",–
CCn1nc(C)c(CN2CCN(Cc3ccc(OC)c(C)c3C)C(CCO)C2)c1C (configuration not stated),–,inactive: -0.693%

SMILES,Potency,"activity, negative = inhibition"
COc1cccc(-c2cc(C(=O)Nc3c(C)nn(Cc4ccccc4)c3C)no2)c1,"inconclusive [inhibitor, single point]",–
Cc1c(NC(=O)/C(=C\c2ccccc2)NC(=O)c2ccccc2)c(=O)n(-c2ccccc2)n1C,"inconclusive [inhibitor, single point]",–
O=C(O)CCC(=O)N1CCc2cc(S(=O)(=O)N3CCC(Cc4ccccc4)CC3)ccc21,–,inactive: 9.04%
C(=Nc1cnc2ccccc2c1)c1ccc2ccccc2n1,"inconclusive [inhibitor, single point]",–
CCn1cc(CN2N=C(C)CC2c2ccccc2)c(C)n1 (configuration not stated),–,inactive: 2.08%
CNS(=O)(=O)c1ccc(C(C)(C)C)cc1,"inconclusive [inhibitor, single point]",–
COc1cc2c(C#N)c(N3CCCCC3)nc(N)c2c(N)n1,"inconclusive [inhibitor, partial curve]",–
Cc1cc(C)nc(SCc2ccc(C(=O)N/N=C3\CC(C)CC(C)(C)C3)cc2)n1 (configuration not stated),active: 7.94 µM,–
CC(=O)Nc1ccc(C(=O)CSc2nnc(Cc3ccccc3)o2)cc1,"inconclusive [inhibitor, single point]",–
COc1ccc(C(=O)CSc2nnc(CNC(=O)c3ccc(OC)cc3)n2C)cc1,"inconclusive [inhibitor, single point]",–
Cc1ccc(S(=O)(=O)N2CCC(=O)N(CCOCc3ccc(F)cc3)CC2)cc1,"inconclusive [inhibitor, single point]",–
NNC(=O)c1ccc(Oc2cc(Cl)cc(Cl)c2)o1,active: 0.158 µM,–
Cc1cc(=O)[nH]c(SCC2(O)C3CC4CC(C3)CC2C4)n1 (configuration not stated),"inconclusive [inhibitor, single point]",–
Cc1nnc(SCC(=O)N2c3ccccc3C(C)(c3ccccc3)CC2(C)C)s1 (configuration not stated),–,inactive: -11.7%
NC(=O)COc1ccc(/C=N/NS(=O)(=O)c2ccccc2)cc1,–,inactive: -7.35%
CC(=O)C(/C=N/c1cc(-c2ccc(C)cc2)nn1-c1ccccc1)=C(\C)O,–,inactive: -8.99%
CN(C)c1ccc(NC2=C([N+](=O)[O-])CS(=O)(=O)C2)cc1,"inconclusive [inhibitor, single point]",–
O=C(Nc1ccc(S(=O)(=O)N2CCOCC2)cc1)c1cccs1,"inconclusive [inhibitor, single point]",–
O=C(C(Cl)Cl)N1c2ccccc2OCC1c1ccccc1 (configuration not stated),active: 1.26 µM,–
O=C1CC(N2CCN(Cc3ccc4c(c3)OCO4)CC2)C(=O)N1c1ccccc1 (configuration not stated),active: 15.8 µM,–
CCOc1ccc(S(=O)(=O)N(C(=O)c2ccco2)c2cc3sc(=O)oc3c3ccccc23)cc1,"inconclusive [inhibitor, single point]",–
O=C(O)c1ccc(N/N=C/c2cc3c(cc2[N+](=O)[O-])OCO3)cc1,"inconclusive [inhibitor, full curve, poor fit]",–
CCCn1nc(C(=O)Nc2ccc(S(=O)(=O)Nc3nccs3)cc2)c2ccccc2c1=O,"inconclusive [inhibitor, single point]",–
